In paper PMC6067006 (Cell reports, 2018):

B1: SAMHD1_([…]) D311A/C350S (domain or fragment)
chain: not shown
notes: source: bacterial expression system, purified (as previously described)
B2: SAMHD1_([…]) D311A/C522S (domain or fragment)
chain: not shown
notes: as for B1
B3: SAMHD1_([…]) D311A/C341S (domain or fragment)
chain: not shown
notes: as for B1
B4: SAMHD1_([…]) D311A (domain or fragment)
chain: not shown
notes: also called D311A protein; source: bacterial expression system, purified (as previously described)

Biological target: the molecule itself
Test: AUC; sedimentation velocity, tetramerisation; 5 uM SAMHD1 in 50 mM Tris, 50 mM NaCl, 5 mM MgCl2, 1 mM DTT, pH 8, with 10 uM GTP and 50 uM dATP (also run without nucleotides); 45,000 rpm, 20 C

Row | Protein | binding result
1 | B1 | binds
2 | B2 | binds
3 | B3 | binds
4 | B4 | binds
